From PubChem BioAssay AID360 (National Center for Advancing Translational Sciences (NCATS), 2006)
Hit rate of the full screen: of about 48,000 compounds, about 550 (1.1%) were called active. About 4% were inconclusive and are not listed. Rule as the data show it: active = potency below about 15 µM; inconclusive = mostly about 16 µM to 33 µM; inactive = weaker than that. Some of the results follow.

target: Lysosomal acid glucosylceramidase (Homo sapiens) (UniProt P04062); assay: Glucocerebrosidase; settings: purified enzyme, resorufin glucoside fluorescence (screen aimed at inhibitors), 20 min; series mostly up to 77 µM;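 also: the screen sought inhibitors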
Method in brief: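 Wild-type enzyme at 0.2 nM final in 50mM citric acid/KH2PO4, 10mM sodium taurocholate, 0.01% tween-20, pH 5.9, with resorufin beta-D-glucopyranoside at 30 uM final. Compounds titrated, 20 min at RT, red fluorescence read; AC50 from titration.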
Potency is read from the fitted curve at half-maximal effect.

UniProt P04062, sequence (P04062 whole entry, looked up): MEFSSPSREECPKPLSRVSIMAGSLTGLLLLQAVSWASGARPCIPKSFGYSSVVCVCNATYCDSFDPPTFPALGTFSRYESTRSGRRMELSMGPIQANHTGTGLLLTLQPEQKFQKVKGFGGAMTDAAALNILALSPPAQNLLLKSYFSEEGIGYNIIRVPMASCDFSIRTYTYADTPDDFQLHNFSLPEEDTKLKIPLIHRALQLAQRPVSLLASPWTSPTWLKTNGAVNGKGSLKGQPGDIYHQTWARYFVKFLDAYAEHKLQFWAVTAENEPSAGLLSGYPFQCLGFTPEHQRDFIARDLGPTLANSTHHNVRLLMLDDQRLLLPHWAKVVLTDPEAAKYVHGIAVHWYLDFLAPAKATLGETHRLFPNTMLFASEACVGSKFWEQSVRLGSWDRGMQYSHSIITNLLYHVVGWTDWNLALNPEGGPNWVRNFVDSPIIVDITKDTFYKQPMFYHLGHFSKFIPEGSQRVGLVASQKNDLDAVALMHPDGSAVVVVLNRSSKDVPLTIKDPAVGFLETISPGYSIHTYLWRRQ

Potency, inactive:
COc1ccc(S(=O)(=O)N[C@H](C(=O)N2CC[C@@]3(O)CCCC[C@H]3C2)c2ccccc2)cc1 > 76.9 µM
CC1CCCCC1NC(=O)CSc1nncs1 (centres undefined) > 76.9 µM
CN(C(=O)C1CCOC1)c1nnc(-c2ccccn2)s1 (centres undefined) > 76.9 µM
COc1cc(C2c3c(oc4ccc(Cl)cc4c3=O)C(=O)N2Cc2ccco2)cc(OC)c1OC (centres undefined) > 76.9 µM
CCOC(=O)c1sc2ncnc(N3CCN(C(=O)OCC)CC3)c2c1C > 76.9 µM
Cc1ccc(C(=O)NCc2ccc(Cl)cc2)o1 > 76.9 µM
COc1ccc(OC)c(NC(=O)CSc2ncccc2C(=O)O)c1 > 76.9 µM
CCOc1ccc(N2CC(C(=O)NCCCN3CCOCC3)CC2=O)cc1 (centres undefined) > 76.9 µM
O=C(c1ccco1)n1nc(NCc2ccccc2)nc1NCc1ccccc1
CC(C)(C)Oc1ncc(Br)c(OC(C)(C)C)n1 > 76.9 µM
CC(C)Cc1nc(S(=O)(=O)c2ccc(Cl)cc2)c(N2CCOCC2)o1 > 76.9 µM
Cc1nc(N2CCN(Cc3nc4ccccc4[nH]3)CC2)c2oc3ccccc3c2n1 > 76.9 µM
COc1ccccc1-n1c(SCC(=O)O)nnc1-c1ccc(S(=O)(=O)N2CCCCC2)cc1 > 76.9 µM
CCn1c(SCc2ccccc2)nnc1-c1cccs1 > 76.9 µM
COc1cc(C2CC(=O)N3CN(c4ccccc4C)CSC3=C2C#N)cc(OC)c1OC (centres undefined)
COc1ccccc1Nc1nc(N)nc(CSc2nc(C)cc(C)n2)n1 > 76.9 µM
CCOC(=O)C1=C(CC)Nc2ccccc2N=C1NC(=O)Cn1cnc2ccccc2c1=O > 76.9 µM
Cc1cc(C(=O)Nc2cccc(C(=O)O)c2)oc1C > 76.9 µM
Cc1nn(C)cc1CNC(=O)c1ccccc1Br > 76.9 µM
Cc1cccc2cc(CN(Cc3ccc(F)cc3)C(=O)N(C)C)c3nnnn3c12 > 76.9 µM
O=C(c1ccccc1)c1ccc(OC(=O)N2CCCC2)cc1 > 76.9 µM
Cc1nc2ccc(S(=O)(=O)NCC(=O)N3CCOCC3)cc2s1 > 76.9 µM
CCC1CCCCN1S(=O)(=O)c1ccc(C(=O)Nc2nnc(-c3ccccc3Cl)o2)cc1 (centres undefined) > 76.9 µM
CC(=O)c1cccc(S(=O)(=O)N(Cc2cc3cc4c(cc3[nH]c2=O)OCCO4)CC2CCCO2)c1 (centres undefined) > 76.9 µM
O=C(c1ccccc1)c1cccn1CC(=O)N1CCN(C2CCCCC2)CC1 > 76.9 µM
CCOC(=O)C1=C(C)NC(SCC(=O)OC)=C(C#N)C1c1ccc(C(=O)OC)cc1 (centres undefined) > 76.9 µM
CC1CCCC(C)N1S(=O)(=O)c1ccc(NC(=O)c2ccccc2C(=O)N2CCOCC2)cc1 (centres undefined) > 76.9 µM
CC(NC(=O)c1cccs1)C(c1cccs1)N1CCOCC1 (centres undefined) > 76.9 µM
Nc1nc(Nc2ccc(Cl)cc2Cl)nc(C(F)(F)F)n1 > 76.9 µM
COc1ccc2[nH]cc(C(=O)CN3CCCCC3)c2c1 > 76.9 µM
O=C(NC12CC3CC(CC(C3)C1)C2)N1CCC(O)CC1 > 76.9 µM
COc1ccc(N2CCN(c3ccc(NC(=O)c4ccc5c(c4)OCO5)cc3C#N)CC2)cc1 > 76.9 µM
CCCc1noc2c1C(c1ccoc1)C(C#N)=C(N)N2 (centres undefined) > 76.9 µM
Cc1cccc(-n2nnc(C(=O)NCc3ccco3)c2N)c1 > 76.9 µM
CCOC(=O)c1sc(NC(NC(=O)c2ccco2)(C(=O)OC)C(F)(F)F)nc1C (centres undefined) > 76.9 µM
COc1ccccc1OCc1ccc(C(=O)NCc2ccco2)o1 > 76.9 µM
CC1(C)NC(=O)N(CC(O)CN2C(=O)NC(C)(C)C2=O)C1=O > 76.9 µM
CCN(CC)CCCN1C(=O)C(=O)/C(=C(/O)c2ccc3c(c2)OCO3)C1c1ccccn1 (centres undefined) > 76.9 µM
Cn1c(Cc2ccccc2)nnc1SCC(=O)Nc1ccc2c(c1)OCO2 > 76.9 µM
Cc1ccccc1NC(=O)CSc1nc(N)c(C#N)cc1C#N > 76.9 µM
CN(C)S(=O)(=O)c1cccc(C(=O)OCC(=O)Nc2sccc2C(N)=O)c1 > 76.9 µM
CCOc1c(N2CCCCC2)c(=O)c1=O > 76.9 µM
CC(C)NC(=O)NC(=O)COc1cccc2c1OC(C)(C)C2 > 76.9 µM
CCOC(=O)N1CCN(C(=O)c2ccc3c(=O)n(CCc4ccccc4)c(=O)[nH]c3c2)CC1 > 76.9 µM
CC1(C(=O)NC2CCCCCCC2)CCC(=O)N1Cc1ccco1 (centres undefined) > 76.9 µM
CCCCS/C(=C(/C#N)C(N)=O)c1cc2c([nH]1)CCCC2 > 76.9 µM
CCC(=O)Nc1ccc(NC(=O)c2ccccn2)cn1 > 76.9 µM
CCN(CC)CCNC(=O)C1CCN(S(=O)(=O)N2CCCCC2)CC1 > 76.9 µM
Cc1ccc(NC(=O)c2ccc(OC(=O)c3ccco3)cc2)cc1 > 76.9 µM
Cc1csc(NC(=O)C2CCCN(S(=O)(=O)c3ccc(Br)s3)C2)n1 (centres undefined) > 76.9 µM
CCS(=O)(=O)NCCc1cc2cc(C)c(C)cc2[nH]c1=O > 76.9 µM
Oc1ccccc1-c1cc(-c2ccc3c(c2)OCCO3)n[nH]1 > 76.9 µM
C=CCN1C(=O)CS/C1=N/c1nccs1 > 76.9 µM
CCN(C(=O)COc1ncnc2ccc(Br)cc12)C1CCS(=O)(=O)C1 (centres undefined) > 76.9 µM
COc1ccc(S(=O)(=O)N2CCN(S(=O)(=O)c3ccc4c(c3)OCCO4)CC2)cc1C > 76.9 µM
CC1CCN(C(=O)CSc2nnc(CSc3ncccn3)n2C)CC1 > 76.9 µM
CCC(=O)Nc1ccc(C(=O)CSc2nnc(CNc3ccc(Cl)cc3)o2)cc1OC > 76.9 µM
COc1cccc(C2=NO[C@@H]3C(=O)N(Cc4ccccc4)C(=O)[C@H]23)c1OC > 76.9 µM
Cc1cc(-n2c(C)cc(C(=O)CSc3nnnn3-c3ccc(Cl)cc3)c2C)no1 > 76.9 µM
CCOc1ccc(N2CC(=O)Nc3ccccc3NCC2=O)cc1 > 76.9 µM
Cc1ccc(N(CC(=O)Nc2ccc(F)c(Cl)c2)S(=O)(=O)c2c(C)noc2C)cc1
CN1CCN(C(=O)c2ccc(S(=O)(=O)c3ccc(Br)cc3)cc2)CC1 > 76.9 µM
C=CCOc1c(CNc2nccs2)cccc1OCC > 76.9 µM
CC1=C(C(=O)Nc2ccccc2)C(c2ccncc2)C(C#N)=C(SCC(=O)NC2CC2)N1 (centres undefined) > 76.9 µM
CS(=O)(=O)N(CC(=O)NCc1ccccn1)Cc1ccc(Cl)cc1 > 76.9 µM
NC(=O)CSc1ccc(Br)cc1 > 76.9 µM
CCN(CC)C(=O)CSc1nnc(-c2ccccn2)n1-c1ccc(C)c(C)c1 > 76.9 µM
CCOC(=O)c1c(C)nc2cc(C)ccn12 > 76.9 µM
COc1ccc(-c2nc(-c3ccccc3)no2)c(OC)c1 > 76.9 µM
CNC(=O)CN(C)S(=O)(=O)c1ccc(OC)c(Cl)c1 > 76.9 µM
COC(=O)c1cccc(NC(=O)c2nn(C)c(=O)c3ccccc23)c1 > 76.9 µM
CCN(c1ccccc1)S(=O)(=O)c1cccc(C(=O)O)c1 > 76.9 µM
N#Cc1nc(-c2ccco2)oc1NCc1ccc(F)cc1 > 76.9 µM
COc1ccc(C(OC(=O)c2ccco2)C(=O)NCc2ccco2)cc1 (centres undefined) > 76.9 µM
COc1ccc(CCNC(=O)CCn2c(=O)[nH]c3cc(OC)c(OC)cc3c2=O)cc1OC > 76.9 µM
COc1ccc(OC)c(-n2nnnc2SCC(=O)Nc2ccc3c(c2)OCCO3)c1 > 76.9 µM
CSc1nc(NCc2ccco2)c2c3c(sc2n1)CN(C)CC3 > 76.9 µM
COc1ccc(C(=O)N(CN2CCCC2=O)c2ccc(C)cc2)cc1 > 76.9 µM
Cc1ccc(-c2nc3ccccc3o2)cc1NC(=O)c1ccc2c(c1)OCO2 > 76.9 µM
COC(=O)C1=C(NC(=O)c2cccc(C)c2)CCS1 > 76.9 µM
CCC(=O)c1cn(CC(=O)NCC2CCCO2)c2ccccc12 (centres undefined) > 76.9 µM
CN(C)c1nc(OCC(=O)NC(C)(C)C)nc(N(C)C)n1 > 76.9 µM
Cc1ccc(Cn2ncc3c(N4CCN(c5ccccc5C)CC4)ncnc32)cc1 > 76.9 µM
O=C(NCC1COc2ccccc2O1)c1ccccc1 (centres undefined) > 76.9 µM
CCc1c(C)nc2ncnn2c1N1CCC(C(=O)Nc2ccc(C)cc2)CC1 > 76.9 µM
O=C1CC(c2ccc(F)cc2)Cc2nc(N3CCN(c4ccccc4)CC3)ncc21 (centres undefined) > 76.9 µM
COc1cc(OC)cc(C(C(=O)NCc2ccccc2)N(Cc2ccco2)C(=O)c2ccno2)c1 (centres undefined) > 76.9 µM
CN=C1c2ccccc2CN1c1cccc(C(=O)OC)c1 > 76.9 µM
CN(C)S(=O)(=O)c1cccc(C(=O)NCCc2ccccc2)c1 > 76.9 µM
